# “And” between values parts separate entries of the source, which are not always exact repeats. Equal entries are not always repeated. About 50,000 (12%) of roughly 420,000 compounds were called active. The inconclusive results got no clear call from the source; some entries with a clear call stand among them for comparison. The call rests on the fitted dose curve; in most records, active means well fitted inhibition curve with a large enough effect; inconclusive means small, poorly fitted or top-dose-only effect; inactive means flat fitted curve, though single readings scatter. Potencies beside an inconclusive call are fits to weak or partial responses and may not hold up.
# Assay: qHTS for Inhibitors of human tyrosyl-DNA phosphodiesterase 1 (TDP1): qHTS in cells in presence of CPT; further: nearly all actives have a fitted effect of over 55% in size
# Settings: chicken DT40 Tdp1-/-;hTDP1 cells + 20 nM CPT, ATP luminescence, 48 h; activity change, negative = growth inhibition: at 46.2 µM (top of the series)
# How it was run: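 Cell growth measured by CellTiter-Glo luminescence after a minimum 48 h, 37 C compound exposure with 20 nM CPT in Tdp1-knockout DT40 cells stably expressing hTDP1, seeded 400/well; qHTS titration format.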
# On the % scale 0 is the no-effect control and ±100 the full control effect; potency means the concentration at half of the fitted maximal effect; tags describe the fitted curve by direction and shape.
SMILES,Potency,"activity change, negative = growth inhibition"
O=C(CSc1n[nH]c(-c2ccccc2)n1)N1CCN(c2ccc(F)cc2)CC1,"inconclusive: 18.4 µM [inhibitor, single point]",
CCc1nc2ccc(C(=O)NCCCN3CCCC3=O)cn2c1N(CC)C(=O)NCCc1ccccc1,,inactive: -16.5%
CN(Cc1c(F)cccc1Cl)C(=O)c1ccc(COc2ccccc2)cc1,"inconclusive: 23.1 µM [inhibitor, single point]",
CCc1cccc(OCC(=O)Nc2ccc(S(=O)(=O)Nc3onc(C)c3C)cc2)c1,,inactive: -0.56%
C[C@H](CO)N1C[C@H](C)[C@@H](CN(C)Cc2ccncc2)Oc2ncc(Br)cc2C1=O,,inactive: -11.7%
Cc1ccc(CNC(=O)C2CCN(C(=O)N3CC(C)Oc4ccc(Cl)cc43)CC2)cc1 (stereo not given),"inconclusive: 29.1 µM [inhibitor, single point]",
CC1Cc2ccccc2N1C(=O)COC(=O)C1=COCCO1 (stereo not given),,inactive: -2.61%
COc1ccc(C(=O)N(C)C2CCN(C)CC2)cc1S(=O)(=O)Nc1cc(Cl)ccc1Cl,,inactive: 0.699%
Cc1nc(N)nc(N)c1Oc1ccc(Cl)cc1,active: 9.2 µM,
Cc1ccc(-n2c(=O)c3c(cnn3C)n(CC(=O)Nc3cccc(Cl)c3)c2=O)cc1,"inconclusive: 16.4 µM [inhibitor, partial curve]",
O=C(O)C(S)C(S)C(=O)O (stereo not given),"inconclusive: 20.6 µM [inhibitor, single point]",
CCN(CC)c1ccc(-c2n[nH]c(=S)n2-c2ccccc2C)cc1,active: 20.6 µM,
CC(C)CCN1C(=O)c2ccccc2C1c1nnnn1Cc1ccccc1 (stereo not given),"inconclusive: 16.4 µM [inhibitor, single point]",
CCOc1ccc(NC(=O)c2ccc3c(=O)n4c(nc3c2)CCCCC4)cc1,"inactive and inconclusive: 29.1 µM [inhibitor, single point]",
C[C@H](NC(=O)C1CC(=O)N(c2ccc3c(c2)OCO3)C1)C(=O)NC1CCCCC1 (stereo not given in full),"inconclusive: 23.1 µM [inhibitor, single point]",
COc1ccc(N2CC(C(=O)Nc3ccccc3N3CCCC3)CC2=O)c(OC)c1 (stereo not given),active: 2.91 µM,
CC1C(c2ccccc2)=Nn2c(=O)n(-c3ccccc3)c(=O)n21 (stereo not given),"inconclusive: 20.6 µM [inhibitor, single point]",
CC(C)c1ccc(CNc2ccc([N+](=O)[O-])cn2)cc1,,inactive: -16.2%
CN(C)c1nc(=S)nc(NCc2ccccc2)[nH]1,"inconclusive: 29.1 µM [inhibitor, single point]",
N=c1c(C(=O)NC2CCCC2)cc2c(=O)n3ccccc3nc2n1Cc1ccccc1,"inconclusive: 6.51 µM [inhibitor, single point]",
CCC(C)NC(=O)c1cc2cc3ccc(OC)cc3nc2s1 (stereo not given),"inconclusive: 16.4 µM [inhibitor, partial curve]",
CC(C)C(=O)Nc1ccccc1Cc1ccccc1,,inactive: 3.63%
Cc1ccc(CSc2nc3ccccc3c3nc(CCn4c(C)nc5ccccc54)nn23)cc1,,inactive: -12.8%

SMILES,Potency,"activity change, negative = growth inhibition"
CCOc1ccc(OCC(=O)NCc2n[nH]c(=O)c3ccccc23)cc1,"inconclusive: 16.4 µM [inhibitor, single point]",
Cc1nn(-c2ccccc2)c(Cl)c1C(=O)OC(C)C(=O)NC(=O)NC1CCCCC1 (stereo not given),"inconclusive: 25.1 µM [inhibitor, single point]",
COc1ccc(CCNCc2ccc(OCc3ccccc3)cc2)cc1,"inconclusive: 23.1 µM [inhibitor, single point]",
COc1ccc(S(=O)(=O)N(C)C[C@H]2Oc3ccc(NC(=O)C4CC4)cc3C(=O)N([C@H](C)CO)C[C@@H]2C)cc1,"inconclusive: 13 µM [inhibitor, partial curve]",
O=C(NCCN1CCOCC1)c1ccc2c(c1)N(Cc1c(F)cccc1Cl)C(=O)c1ccccc1S2,"inconclusive: 32.6 µM [inhibitor, partial curve, poor fit]",
COc1ccc2cc(C(N)=O)c(=Nc3ccccc3)oc2c1,"inconclusive: 4.61 µM [inhibitor, full curve]",
COc1cccc(NC(=O)C(C)n2c(=O)cc(C(F)(F)F)c3c(C)nn(C)c32)c1 (stereo not given),active: 16.4 µM,
CC(Oc1cc2oc(=O)c3c(c2cc1Cl)CCCC3)C(=O)NCc1ccncc1 (stereo not given),"inconclusive: 5.17 µM [inhibitor, partial curve]",
Cc1ccc(-c2nnc(SCc3ccccc3)o2)cc1,,inactive: -15.7%
CC(=O)OC(C(=O)NC1CCCCC1)c1cccc(C)c1 (stereo not given),,inactive: 2.04%
C(=N\N1CCN(Cc2ccccc2)CC1)/c1cccs1,,inactive: -12.1%
CC(C)Oc1ccc(CNC(=O)C(C)n2ccc3cc(S(=O)(=O)N4CCCCCC4)ccc32)cc1 (stereo not given),"inconclusive: 29.1 µM [inhibitor, single point]",
O=C(NCCCn1ccnc1)c1cc(-c2ccncc2)nc2ccccc12,,inactive: 5.81%
COc1ccc(NC(=O)c2ccccc2NC(=O)c2cccs2)cc1,,inactive: -0.499%
COc1ccc(Cl)cc1NC(=O)CN(C)C(=O)c1cc2c(F)cccc2s1,active: 10.3 µM,
CC1CCN(S(=O)(=O)c2ccc3c(c2)N(C)C(=O)CC(=O)N3C)CC1,"inconclusive: 25.9 µM [inhibitor, single point]",
CCC(C)N(C(=O)c1csnn1)C(C(=O)NCc1ccc(F)cc1)c1ccco1 (stereo not given),"inconclusive: 20.6 µM [inhibitor, single point]",
CCc1ccc(CNC(=O)CN2C(=O)C3CCCCN3c3ccc(C(=O)N4CCCC4)cc32)cc1 (stereo not given),"inconclusive: 25.9 µM [inhibitor, single point]",
COc1ccc(N2CSC3=C(C#N)C(c4ccc(OC)c(OC)c4)CC(=O)N3C2)c(OC)c1 (stereo not given),"inconclusive: 29.1 µM [inhibitor, single point]",
CC(C)(C)c1csc(NNC(=O)c2ccc(Cl)cc2)n1,"inconclusive: 29.1 µM [inhibitor, single point]",
Cc1cccc(C)c1OCC(=O)N1CCc2ccccc2C1,"inconclusive: 29.1 µM [inhibitor, single point]",
N#CCCCN1C(=O)C(O)(CC(=O)c2ccc3c(c2)OCCO3)c2ccccc21 (stereo not given),"inconclusive: 23.1 µM [inhibitor, single point]",

# Reference: PubChem BioAssay AID686979 (National Center for Advancing Translational Sciences (NCATS), 2013)
